Measured values: article PMC4336329 (PLoS ONE, 2015)
Screen size: about 310,000 compounds; about 14,000 (4.5%) showed an effect of 50% or more. Effects have a minus sign here. The list shows a part of the results.

molecular target: human ether-à-go-go-related gene (hERG) potassium channel (human, UniProt Q12809); experiment: primary screen, population patch clamp on CHO cells stably expressing hERG
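Note: peak tail current of the secondary pulse compared with the same well before compound.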

human ether-à-go-go-related gene (hERG) potassium channel, sequence (Q12809 whole entry, looked up): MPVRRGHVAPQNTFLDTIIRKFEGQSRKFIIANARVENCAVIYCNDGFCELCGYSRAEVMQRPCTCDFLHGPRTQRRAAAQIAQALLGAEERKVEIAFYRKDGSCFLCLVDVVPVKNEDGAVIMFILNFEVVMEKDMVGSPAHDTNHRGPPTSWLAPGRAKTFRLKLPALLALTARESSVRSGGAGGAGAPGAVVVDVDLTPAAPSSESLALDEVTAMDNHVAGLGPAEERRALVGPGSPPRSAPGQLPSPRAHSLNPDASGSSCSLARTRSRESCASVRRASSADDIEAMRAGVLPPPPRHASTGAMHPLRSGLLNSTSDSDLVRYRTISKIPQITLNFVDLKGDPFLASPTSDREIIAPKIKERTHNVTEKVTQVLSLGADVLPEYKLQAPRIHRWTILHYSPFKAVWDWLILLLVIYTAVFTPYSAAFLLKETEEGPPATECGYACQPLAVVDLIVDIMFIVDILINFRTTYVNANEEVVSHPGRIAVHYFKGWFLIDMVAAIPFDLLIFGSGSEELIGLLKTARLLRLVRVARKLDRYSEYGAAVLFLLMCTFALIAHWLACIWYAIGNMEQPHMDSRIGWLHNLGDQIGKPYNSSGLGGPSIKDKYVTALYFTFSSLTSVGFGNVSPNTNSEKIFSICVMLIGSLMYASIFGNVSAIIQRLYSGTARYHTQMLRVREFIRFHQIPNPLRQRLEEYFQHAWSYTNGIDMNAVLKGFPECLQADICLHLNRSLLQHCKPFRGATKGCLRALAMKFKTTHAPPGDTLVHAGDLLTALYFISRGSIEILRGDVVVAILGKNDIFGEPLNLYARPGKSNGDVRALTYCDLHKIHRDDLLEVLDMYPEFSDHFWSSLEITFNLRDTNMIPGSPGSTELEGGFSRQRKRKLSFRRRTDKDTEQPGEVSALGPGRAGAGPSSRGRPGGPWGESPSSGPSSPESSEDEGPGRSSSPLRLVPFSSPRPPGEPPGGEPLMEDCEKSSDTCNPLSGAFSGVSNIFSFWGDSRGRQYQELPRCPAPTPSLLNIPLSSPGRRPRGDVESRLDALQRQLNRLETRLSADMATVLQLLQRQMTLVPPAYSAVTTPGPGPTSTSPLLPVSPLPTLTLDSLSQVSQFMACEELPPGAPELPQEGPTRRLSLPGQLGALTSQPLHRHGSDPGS

Compound	hERG current change (%, negative = inhibition) at 10uM [%]
O=C(NCCN1CCOCC1)c1ccc(-c2ccccc2)cc1	-8.77
COCCN(CCOC)C(=O)c1ccc(CSc2nc3ccccc3s2)cc1	-21.8
C[C@@H](C(O)c1ccccc1)N(C)C(=O)CCc1ccccc1 (some centres unmarked)	-6.9
O=C(Nc1cccc(NC(=O)c2cccs2)c1)c1ccc(Br)o1	-44
CCN(Cc1ccccc1)C(=O)c1cc(S(=O)(=O)N2CCOCC2)ccc1N1CCCC1	-39.3
CCCCC1C2=C(CCCC2=O)OC2=C1C(=O)CCC2	-14.9
Cc1cc2c(C)ccc(C)c2nc1SCC(=O)c1cccs1	26
CCN(Cc1ccncc1)C(=O)C1CCN(S(=O)(=O)c2cccs2)CC1	5.09
Cc1ccc(-n2nc(C)c(/C=N/NC(=O)c3cccs3)c2Cl)cc1	5.12
CCOc1ccc(C(=O)Nc2cc(C)on2)cc1	-2.55
CCC(C)c1ccc(NC(=O)Nc2cnccn2)cc1 (centres unmarked)	13.4
CC(OC(=O)c1ccc(F)c(S(=O)(=O)N2CCOCC2)c1)C(=O)NCC1CCCCC1 (centres unmarked)	1.84
Cc1ccc(C(=O)N2CCC3(CC2)NCCc2[nH]cnc23)cc1C	8.58
COc1ccc2c(OC)c3ccoc3nc2c1OC	8.18
CCCCCCCC(=O)N1c2ccccc2NC(=O)C1CC(=O)Nc1ccc(C(=O)O)cc1 (centres unmarked)	13.6
COc1ccc(NS(=O)(=O)c2cc(OC)ccc2NC(=O)c2cc(C)oc2C)cc1	-3.45
C=CCNC(=O)NC(=O)COC(=O)CC(NC(N)=O)c1ccc(Cl)cc1 (centres unmarked)	7.1
COc1ccc(CCN(C)CC(=O)Nc2cc(C)nc3ccccc23)cc1OC.O=C(O)C(=O)O	5.34
Cc1ccc2cc(CN(CCN3CCCC3)C(=O)Nc3ccccc3)c(=O)[nH]c2c1C	-57.8
Cc1ccc(NC(=O)CCNC(=O)c2ccc([N+](=O)[O-])cc2)cc1S(=O)(=O)N(C)C	-66.9
Cc1ccc(C(=O)N/N=C/c2cc(Br)ccc2O)cn1	-0.323
CCN1CCN(c2nc(-c3cccnc3)nc3ccccc23)CC1.Cl	-55.4
COc1ccc(Nc2nc(N)c([N+](=O)[O-])c(NCc3ccccc3)n2)cc1	0.168

Compound	hERG current change (%, negative = inhibition) at 10uM [%]
COc1ccccc1CCNS(=O)(=O)c1cn(C)nc1C	1.14
Cc1ccc(C(=O)NCC(=O)O)cc1S(=O)(=O)N1CCCCC1	18.5
O=S(=O)(c1ccc(Cl)cc1)N1CN(CC2CCCO2)c2nc3ccccc3nc21 (centres unmarked)	-9.72
Clc1ccc(-c2cc(-c3ccccc3)on2)cc1	5.36
COc1ccc(/C(O)=C2/C(=O)C(=O)N(CCN3CCNCC3)C2c2cccc([N+](=O)[O-])c2)cc1 (centres unmarked)	25.3
CC1(C)CC(NC(=O)c2sc3cc(Cl)ccc3c2Cl)CC(C)(C)N1	-15.3
Cc1ccc(-n2[nH]c(C)c(C=Nc3ccc(S(=O)(=O)N4CCOCC4)cc3)c2=O)c(C)c1	-7.6
O=C(Nc1cc(F)ccc1F)C1CCCN1S(=O)(=O)c1cccc2nsnc12 (centres unmarked)	-24.3
COc1ccc(N=Cc2ccc(CNS(=O)(=O)c3ccc(Cl)cc3)o2)cc1	12.1
C[n+]1cn(CC(O)COCc2ccccc2)c2ccccc21.[I-] (centres unmarked)	24
CC(C)CN(CC(C)C)c1nnc(N)s1	4.06
CNc1nc(N/N=C/c2ccc([N+](=O)[O-])cc2)nc(Nc2ccccc2)n1.Cl	-16.7
COc1ccc(C2CN(C)CC2C(=O)c2ccc(F)cc2)cc1Cl (centres unmarked)	-78.7
CC1CCN(C(=O)c2ccc(N3C(=O)C4CCC(C)CC4C3=O)cc2)CC1 (centres unmarked)	17
Cc1ccn2cc(CCNC(=O)Cc3cccs3)nc2c1	-15.5
O=C(CCN1C(=O)C2C3CC(C(Br)C3Br)C2C1=O)OCC(=O)c1ccccc1 (centres unmarked)	-18.2
Cc1c(CC(=O)NCCCCCC(=O)O)c(=O)oc2c(C)c3oc4c(c3cc12)CCCC4	20.4
COc1ccccc1-c1cnn2c(NC3CCCC3)cc(C)nc12	12.8
O=C(Nc1cc(S(=O)(=O)N2CCOCC2)ccc1N1CCOCC1)c1ccccc1F	-9.18
COc1ccc(Cl)cc1NC(=O)CN(C)C(=O)Cn1cnc2c1c(=O)n(C)c(=O)n2C	-11.4
Cc1c(Cl)cnn1CC(=O)NC1C(=O)N2C(C(=O)O)=C(CSc3nnnn3C)CSC12 (centres unmarked)	11.9
Cc1c(NC(=O)CN2CCCC(C)C2)ccc2nsnc12 (centres unmarked)	33.6
CCN(CC)CCN(C(=O)C1=COCCO1)c1nc2cc(C)cc(C)c2s1.Cl	-69

Compound	hERG current change (%, negative = inhibition) at 10uM [%]
Cc1cc(S(=O)(=O)N2CCN(c3ccccc3C)CC2)ccc1F	1.78
CN(C)C=O.O=C(Nc1cccc(S(=O)(=O)NC2=NCCCCC2)c1)c1cc(-c2ccco2)nc2ccccc12	19.7
CC(C)C(C(=O)Nc1ccccc1F)N1C(=O)c2ccccc2C1=O (centres unmarked)	-3.78
CCOC(=O)c1c(S(=O)(=O)NCc2ccc(OC)cc2)c(C)n(C)c1C	-15.1
Cn1c(=O)n(CC#N)c2ccccc21	15.7
C/C(=N\Nc1ncc(Cl)cc1Cl)c1ccc(C#N)cc1	-4.88
CCN=C1NN=C(c2cc(C)n(Cc3ccco3)c2C)CS1	18.9
COc1ccccc1NCCC(=O)OCC(=O)NC1CCCC(C)C1C (centres unmarked)	9.37
COc1cc(C2/C(=C(\O)c3cc(C)ccc3C)C(=O)C(=O)N2CCN(C)C)ccc1O (centres unmarked)	7.57
N#CC1=C(N)NC(SCC(=O)Nc2ccccc2)=C(C#N)C12CCCC2	-5.85
O=C(O)c1ccc(CNC(=O)c2ccccc2NC(=O)c2ccc([N+](=O)[O-])cc2)cc1	16.9
CCc1ccccc1NC(=O)C1CC(c2ccc(F)cc2)=NO1 (centres unmarked)	4.94
CN(C)Cc1c(O)ccc2ccccc12	0.0591
COc1ccc2nc(NC(=O)NC3CCCCC3)sc2c1	15.1
Cn1c(SCC(=O)NC2CCCC2)nnc1-c1ccccn1	12.2
CC(NC(=O)C(c1ccccc1)c1ccccc1)C(=O)N1CCCCC1 (centres unmarked)	-10.6
CCOC(=O)NC(c1ccccc1)C1CCCCC1=O (centres unmarked)	3.81
Cc1nc2ccccc2nc1N/N=C/c1ccc(O)cc1O	-6.44
COC(=O)c1cc(C(C)=O)n2ccccc12	-11.6
CC(C)CCn1c(SCC(=O)NC2CC2)nc2cc(Cl)ccc2c1=O	14
COC(=O)c1ccc2c(c1)N(C)S(=O)(=O)c1cnc(SCC(=O)C(C)(C)C)nc1-2	14.7
COc1ccc(-n2nnnc2SCC(=O)Nc2ccccc2F)cc1	12.3
CCn1c(SC(C)C(=O)O)nc2sc3c(c2c1=O)CCC3 (centres unmarked)	22.2

Compound	hERG current change (%, negative = inhibition) at 10uM [%]
Cc1ccc(C(=O)Nc2cccc(C(=O)O)c2)cc1	14.4
Cc1ccc2c(c1)cc1c(=O)n(CC(=O)N(C)c3ccccc3)nc(C)n12	0.0802
Cc1[nH]c2ccccc2c1C(=O)CSC(=S)N(C)C1CCCCC1	-3.52
O=C(Nc1c[nH]c(=O)[nH]c1=O)c1cccc([N+](=O)[O-])c1	14.7
O/N=C/c1cn(-c2ccc(Cl)cc2)nn1	-5.87
CN(C(=O)COc1ncnc2sccc12)C1CCCCC1	-0.342
COc1cccc(NC(=O)c2cccnn2)c1	19.7
Cc1cc(Cl)c2ccccc2n1.O	0.0587
CCOC(=O)Cc1csc(NC(=O)COc2cc(C)cc(C)c2)n1	5.84
CC(C)COc1nc2ccccc2nc1C(C#N)C(=O)NC1CCCCC1 (centres unmarked)	10.1
Cc1cc(C)cc(NC(=O)c2ccc(NC(=O)C3C4CC5OC(=O)C3C5C4)cc2)c1 (centres unmarked)	9.84
COc1cc(C(=O)O)nc2ccccc12	11.5
COc1ccc(CCN2CC(C(=O)N(C)C3CCOCC3)CCC2=O)cc1 (centres unmarked)	8.23
Oc1c(N=NC(=S)Nc2ccccc2F)c2ccccc2n1Cc1ccccc1Cl	19.4
COc1ccc(Cc2nnc(NC(=O)c3ccc(C)cc3)s2)cc1OC	14.2
CN(Cc1ccc2nsnc2c1)Cc1nc(Cc2cccc(F)c2)no1	-18.8
CN1C[C@@H]2C(c3ccccc3)C3(c4cccnc4)CC2(C3)[C@H]1c1ccccc1 (some centres unmarked)	-46.5
Cc1sc2nc(CSc3ccc([N+](=O)[O-])cc3)[nH]c(=O)c2c1C	6.57
COc1ccc(-c2csc3ncn(-c4ccc(C)cc4)c(=O)c23)cc1OC	37.8
CC(C)c1ccc(N(CC(=O)NCCSCc2ccco2)S(C)(=O)=O)cc1	-12.1
